# In PubChem BioAssay (Tox21):
# Values joined by “and” are separate entries in the source; they are usually repeats but may differ in a detail not shown here. Identical values can stand only once. This list was built around the results that the source calls inconclusive (neither active nor inactive); the mix of calls is not that of the screen. For some of these results: A potency beside an inconclusive call is a rough fit, not a confirmed value. Active and inactive are the calls of the source. Unless noted, calls follow the shape of the dose curve; as a rule, active = well fitted curve in the direction sought with a large enough effect in the repeat runs; inconclusive = weak or mixed curves; inactive = no such curve, though single readings can be large; an effect the other way counts as inactive or inconclusive.
# How the values were obtained:
# [1] = qHTS assay for identifying genotoxic compounds that show differential cytotoxicity against isogenic chicken DT40 cell lines with known DNA damage response pathways - wild type cell line (AID 743012); conditions: DT40 wild type chicken cells viability, CellTiter-Glo, 40 h; activity change, negative = cytotoxicity: at 68.4 µM (top of the series) unless noted; also: potency is read from the fitted curve at half-maximal effect; nearly all actives have a fitted effect of over 60% in size
# How it was run: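 Parental DNA repair-proficient DT40 cells, 300 per well, were pre-incubated ~0.5 h at 37 C/5% CO2, pin-dosed with compounds in DMSO, then incubated 40 h. Viability was read as CellTiter-Glo luminescence after 30 min at room temperature.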
# [2] = qHTS assay for identifying genotoxic compounds that show differential cytotoxicity against isogenic chicken DT40 cell lines with known DNA damage response pathways - Rev3 mutant cell line (AID 743014); conditions: chicken DT40 Rev3-/- viability, CellTiter-Glo, 40 h; activity, negative = cytotoxicity: at 68.4 µM (top of the series); also: nearly all actives have a fitted effect of over 55% in size; also: potency is read from the fitted curve at half-maximal effect
# [3] = qHTS assay for identifying genotoxic compounds that show differential cytotoxicity against isogenic chicken DT40 cell lines with known DNA damage response pathways - Rad54/Ku70 mutant cell line (AID 743015); conditions: DT40 Rad54/Ku70 mutant viability, CellTiter-Glo, 40 h; activity change, negative = cytotoxicity: at 66.8 µM (top of the series); also: nearly all actives have a fitted effect of over 60% in size; also: potency is read from the fitted curve at half-maximal effect; as to activity change, negative = cytotoxicity: % is scaled to controls: 0 for no effect and ±100 for the full control effect
# [4] = qHTS assay to identify small molecule antagonists of the thyroid receptor (TR) signaling pathway (AID 743065); conditions: GH3.TRE-Luc, T3-stimulated luciferase inhibition, 23.5 h; series mostly up to 70.3 µM; also: nearly all actives have a fitted effect of over 55% in size; also: potency is read from the fitted curve at half-maximal effect
# How it was run: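 GH3.TRE-Luc rat pituitary cells carrying two TR response elements driving luciferase were plated for 4 h, given compound plus 1 nM T3 (final), and incubated 23.5 h at 37 C. ONE-Glo luminescence measured reporter inhibition; CellTiter-Fluor fluorescence tracked cytotoxicity.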
# [5] = qHTS assay to identify small molecule antagonists of the estrogen receptor alpha (ER-alpha) signaling pathway using the BG1 cell line (AID 743080; calls by dose curve;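 also: BG1 cells stimulated with 17beta-estradiol alongside compound; nearly all actives have a fitted effect of over 25% in size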; also: potency is read from the fitted curve at half-maximal effect); conditions: BG1Luc4E2 ERE-luciferase antagonist mode, luminescence; activity change, negative = inhibition: at 70.3 µM (top of the series) unless noted
# How it was run: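 Quantitative HTS on the Tox21 10K library: BG1 cells with endogenous ER-alpha and ERE-luciferase reporter, 17beta-estradiol stimulation, 21.5 h compound exposure, luminescence endpoint with parallel fluorescence cytotoxicity counter-read.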
# [6] = qHTS assay to identify small molecule antagonists of the estrogen receptor alpha (ER-alpha) signaling pathway using the BG1 cell line - cell viability counter screen (AID 743081); conditions: BG1Luc4E2 viability, CellTiter-Fluor, 22 h; activity change, negative = cytotoxicity: at 70.3 µM (top of the series) unless noted;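 also: compound given together with 17beta-estradiol as the ER stimulus; nearly all actives have a fitted effect of over 45% in size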; also: potency is read from the fitted curve at half-maximal effect
# [7] = target: Androgen receptor (Homo sapiens) (UniProt P10275); test: qHTS assay to identify small molecule agonists of the androgen receptor (AR) signaling pathway (AID 743036; active = well fitted activation curve with a large enough effect in the signal ratio in the repeat runs, with a control signal flat, not every such curve was filed as active; inconclusive = weak or mixed curves, or effect the other way; inactive = no such curve, though single readings can be large or run the other way; the % refers to the signal ratio; also: potency is read from the fitted curve at half-maximal effect); conditions: HEK293 AR-UAS-bla GripTite, beta-lactamase FRET ratio, 16 h; activation: at 62.4 µM (top of the series) unless noted
# Chain of UniProt P10275 (P10275 whole entry, looked up): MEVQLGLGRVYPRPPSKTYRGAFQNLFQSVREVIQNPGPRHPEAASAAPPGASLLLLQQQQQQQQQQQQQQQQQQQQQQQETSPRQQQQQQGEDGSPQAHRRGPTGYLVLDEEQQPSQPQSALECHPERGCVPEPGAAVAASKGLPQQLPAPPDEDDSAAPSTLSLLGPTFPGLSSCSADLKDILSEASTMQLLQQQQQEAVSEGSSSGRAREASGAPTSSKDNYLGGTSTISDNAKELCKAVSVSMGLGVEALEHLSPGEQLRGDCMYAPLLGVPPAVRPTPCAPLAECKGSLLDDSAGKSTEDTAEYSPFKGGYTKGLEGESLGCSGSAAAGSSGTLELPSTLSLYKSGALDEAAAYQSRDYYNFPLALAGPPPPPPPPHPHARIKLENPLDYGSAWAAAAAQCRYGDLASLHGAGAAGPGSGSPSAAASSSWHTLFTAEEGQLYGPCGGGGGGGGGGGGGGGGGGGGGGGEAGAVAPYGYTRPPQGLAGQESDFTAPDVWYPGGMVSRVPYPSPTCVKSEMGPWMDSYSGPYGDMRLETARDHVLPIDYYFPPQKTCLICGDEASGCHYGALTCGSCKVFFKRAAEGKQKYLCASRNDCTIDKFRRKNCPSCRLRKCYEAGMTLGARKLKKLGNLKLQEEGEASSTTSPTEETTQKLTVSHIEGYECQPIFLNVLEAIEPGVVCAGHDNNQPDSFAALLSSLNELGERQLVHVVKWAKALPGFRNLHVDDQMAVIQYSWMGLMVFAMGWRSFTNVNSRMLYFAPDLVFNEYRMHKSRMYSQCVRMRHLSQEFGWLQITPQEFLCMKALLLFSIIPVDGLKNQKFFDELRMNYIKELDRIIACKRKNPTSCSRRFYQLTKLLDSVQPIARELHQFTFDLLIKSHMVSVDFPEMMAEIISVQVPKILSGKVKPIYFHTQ
# How it was run: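 Quantitative HTS of the Tox21 10K library in HEK293 cells bearing a stably integrated UAS-controlled beta-lactamase reporter. Compound exposure lasted 16 h at 37C. Reporter activity was detected by FRET substrate fluorescence after 2 h at room temperature.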
# [8] = test system: thyroid hormone receptor (rat, GH3 cells); test: qHTS assay to identify small molecule agonists of the thyroid receptor (TR) signaling pathway (AID 743066; calls by dose curve; also: % is scaled to controls: 0 for no effect and ±100 for the full control effect); conditions: GH3.TRE-Luc cells, TR agonist luciferase, 24 h; activation: at 83.9 µM (top of the series) unless noted
# [9] = target: Estrogen receptor (Homo sapiens) (UniProt P03372); test: qHTS assay to identify small molecule agonists of the estrogen receptor alpha (ER-alpha) signaling pathway using the BG1 cell line (AID 743079); conditions: BG1Luc4E2 cells, ERE-luciferase agonist, 22 h; also: nearly all actives have a fitted effect of over 20% in size; also: potency is read from the fitted curve at half-maximal effect
# Chain of UniProt P03372 (P03372 whole entry, looked up): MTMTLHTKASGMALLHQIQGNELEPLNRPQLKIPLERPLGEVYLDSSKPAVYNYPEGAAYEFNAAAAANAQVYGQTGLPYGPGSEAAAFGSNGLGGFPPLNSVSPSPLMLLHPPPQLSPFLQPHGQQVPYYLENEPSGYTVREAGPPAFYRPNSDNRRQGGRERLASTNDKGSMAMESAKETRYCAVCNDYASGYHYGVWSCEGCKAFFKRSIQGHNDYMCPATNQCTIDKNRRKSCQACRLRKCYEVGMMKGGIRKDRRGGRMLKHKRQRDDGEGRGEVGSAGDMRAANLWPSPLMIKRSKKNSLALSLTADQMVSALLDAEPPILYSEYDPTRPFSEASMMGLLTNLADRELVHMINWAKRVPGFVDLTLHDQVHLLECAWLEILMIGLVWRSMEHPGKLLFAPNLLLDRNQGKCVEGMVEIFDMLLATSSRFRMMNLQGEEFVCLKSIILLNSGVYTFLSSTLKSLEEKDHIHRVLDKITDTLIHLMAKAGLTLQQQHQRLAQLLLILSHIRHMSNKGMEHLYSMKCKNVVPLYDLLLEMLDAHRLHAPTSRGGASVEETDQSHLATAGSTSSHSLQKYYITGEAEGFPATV
# [10] = qHTS assay to identify small molecule antagonists of the estrogen receptor alpha (ER-alpha) signaling pathway - cell viability counter screen (AID 743074; calls by dose curve; also: nearly all actives have a fitted effect of over 45% in size; also: potency is read from the fitted curve at half-maximal effect); conditions: ERalpha-bla HEK293 viability, CellTiter-Glo luminescence, 18 h; series mostly up to 69.4 µM
# [11] = target: Androgen receptor (Homo sapiens) (UniProt P10275); test: qHTS assay to identify small molecule antagonists of the androgen receptor (AR) signaling pathway (AID 743035; active = well fitted inhibition curve with a large enough effect in the signal ratio in the repeat runs, not every such curve was filed as active; inconclusive = weak or mixed curves, or effect the other way; inactive = no such curve, though single readings can be large or run the other way; the % refers to the signal ratio; also: % is scaled to controls: 0 for no effect and ±100 for the full control effect); conditions: HEK293 AR-UAS-bla, R1881-stimulated, beta-lactamase FRET, 16 h
# How it was run: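 HEK293 cells stably carrying a UAS-driven beta-lactamase reporter (AR-UAS-bla GripTite) were plated for 4 h at 37C, then given compound and the agonist R1881 and incubated 16 h. Reporter activity was read by LiveBLAzer B/G FRET fluorescence after 2 h at room temperature.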
# [12] = target: Androgen receptor (Homo sapiens) (UniProt P10275); test: qHTS assay to identify small molecule antagonists of the androgen receptor (AR) signaling pathway using the MDA cell line (AID 743042; also: % is scaled to controls: 0 for no effect and ±100 for the full control effect; nearly all actives have a fitted effect of over 55% in size); conditions: MDA-kb2 AR-luc, MMTV luciferase, R1881 antagonist, 16 h; series mostly up to 70.3 µM
# How it was run: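 MDA-kb2 cells (human breast carcinoma, stably carrying an MMTV-luciferase reporter responsive to AR and GR) were plated at 3,000 cells/well and preincubated 5 hr at 37C, then given compound plus R1881 agonist for 16 h. ONE-Glo luminescence was read.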
# [13] = qHTS assay to identify small molecule antagonists of the androgen receptor (AR) signaling pathway using the MDA cell line - cell viability counter screen (AID 743041; also: potency is read from the fitted curve at half-maximal effect; nearly all actives have a fitted effect of over 45% in size); conditions: MDA-kb2 viability, CellTiter-Fluor, 16 h, cells co-treated with R1881 androgen agonist; viability change, negative = cytotoxic: at 70.3 µM (top of the series) unless noted
# How it was run: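 MDA-kb2 AR-luc human breast carcinoma cells (MMTV-luciferase, AR/GR responsive) were treated with compounds plus R1881 agonist for 16 h at 37 °C. Viability was read as CellTiter-Fluor fluorescence in the same wells as the reporter assay.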
# [14] = qHTS assay to identify small molecule antagonists of the thyroid receptor (TR) signaling pathway - cell viability counter screen (AID 743064); conditions: GH3.TRE-Luc viability, CellTiter-Fluor, 24 h; activity change, negative = cytotoxic: at 70.3 µM (top of the series) unless noted; also: potency is read from the fitted curve at half-maximal effect; nearly all actives have a fitted effect of over 50% in size
# How it was run: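 Rat GH3 pituitary tumor cells stably expressing two TR response elements driving luciferase were plated, rested 4 h, then dosed with library compounds and T3 (1 nM final). After 23.5 h at 37 °C, CellTiter-Fluor was added for 30 min and fluorescence recorded.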
# [15] = qHTS assay to identify small molecule antagonists of the androgen receptor (AR) signaling pathway - cell viability counter screen (AID 743033; also: potency is read from the fitted curve at half-maximal effect; nearly all actives have a fitted effect of over 45% in size); conditions: AR-bla HEK293 viability, CellTiter-Glo luminescence, 16 h; activity change, negative = cytotoxicity: at 58.5 µM (top of the series) unless noted
# [16] = target: Estrogen receptor (Homo sapiens) (UniProt P03372); test: qHTS assay to identify small molecule antagonists of the estrogen receptor alpha (ER-alpha) signaling pathway (AID 743069; active = well fitted curve in the direction sought with a large enough effect in the signal ratio in the repeat runs, not every such curve was filed as active; inconclusive = weak or mixed curves, or effect the other way; inactive = no such curve, though single readings can be large or run the other way; the % refers to the signal ratio; also: % is scaled to controls: 0 for no effect and ±100 for the full control effect); conditions: HEK293 ER-alpha-UAS-bla, beta-lactamase ratio, antagonist mode; activity, negative = inhibition: at 69.4 µM (top of the series) unless noted
# How it was run: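 HEK293 cells stably carrying an ER-alpha-UAS-bla beta-lactamase reporter were pre-cultured overnight in 2% charcoal-stripped FBS medium. Test compounds in DMSO were added together with 17beta-estradiol for 18 hr at 37C. Read-out was fluorescence after 2 hr with LiveBLAzer B/G FRET substrate at room temperature.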
# [17] = target: Estrogen receptor (Homo sapiens) (UniProt P03372); test: qHTS assay to identify small molecule agonists of the estrogen receptor alpha (ER-alpha) signaling pathway (AID 743075; calls by dose curve; also: potency is read from the fitted curve at half-maximal effect); conditions: HEK293 ER-alpha-UAS-bla, beta-lactamase FRET ratio, 18 h; series mostly up to 70.1 µM
# [18] = activation: at 70.3 µM (top of the series) unless noted
# Tags tell the direction and shape of the fitted curve or compound fluorescence and quenching.
smiles,measurement,setting,value
C[C@@H]1C[C@H]2[C@@H]3CCC4=CC(=O)C=C[C@]4(C)[C@@]3(F)[C@@H](O)C[C@]2(C)[C@@]1(O)C(=O)COP(=O)(O)O,Potency,[1],"inconclusive: 40.2 µM [cytotoxic, partial curve, poor fit]"
same,Potency,[2],"inconclusive: 4.22 µM [cytotoxic, partial curve] and inconclusive: 25.3 µM [cytotoxic, partial curve, poor fit]"
same,Potency,[3],inactive
same,Potency,[4],inactive
same,Potency,[5],"inconclusive: 0.531 µM [rising, full curve]"
same,"activity change, negative = inhibition",[5],inconclusive: 19%
same,Potency,[6],inactive
CC1=CCC2C(C1)C2(C)C (stereo unspecified),Potency,[1],"inconclusive: 77 µM [cytotoxic, partial curve, poor fit]"
same,Potency,[2],"inconclusive: 68.6 µM [cytotoxic, single point]"
same,Potency,[3],"inconclusive: 68.6 µM [cytotoxic, single point]"
same,Potency,[7],inactive
same,Potency,[8],inactive
same,Potency,[9]; [18],inactive
C/C=C(\C)C(=O)OCc1ccccc1,Potency,[1],"inconclusive: 68.6 µM [cytotoxic, single point]"
same,Potency,[2],"inconclusive: 68.6 µM [cytotoxic, single point]"
same,Potency,[3],"inconclusive: 61.1 µM [cytotoxic, partial curve, poor fit]"
same,Potency,[10],inactive
Cc1ccc2c(n1)Oc1ccc(C(C)C(=O)OCC(=O)N(C)C)cc1C2 (stereo unspecified),Potency,[1],"inconclusive: 26.6 µM [cytotoxic, partial curve]"
same,Potency,[2],"inconclusive: 33.5 µM [cytotoxic, single point] and inactive"
same,Potency,[3],"inconclusive: 33.5 µM [cytotoxic, single point]"
same,"activity change, negative = inhibition","[11]; activity change, negative = inhibition: at 58.5 µM (top of the series) unless noted",inconclusive: 0.487%
same,"activity change, negative = inhibition",[11]; at 58.5 µM (top of the series),inactive: -3.4%
same,Potency,[7],inconclusive: 26.8 µM [fluorescent] and inactive
same,Potency,[12],inactive
same,Potency,[10],"inconclusive: 30.1 µM [rising, single point]"
same,activation,[9]; [18],inconclusive: 28.5% [phenotype inactive]
same,activation,[9]; at 70.3 µM (top of the series),inactive: 15.1%
same,Potency,[5],"inconclusive: 18.8 µM [rising, partial curve, poor fit]"
same,"activity change, negative = inhibition",[5],inconclusive: 12.7%
same,Potency,[6],"inconclusive: 11.9 µM [cytotoxic, single point]"
CCO[Si](C)(CCCOCC1CO1)OCC (stereo unspecified),Potency,[1],active: 13.7 µM
same,Potency,[2],active: 7.7 µM
same,Potency,[3],active: 27.3 µM
same,Potency,[4],"inconclusive: 68.6 µM [inhibitor, single point]"
CCOC(=O)COc1ccc2c(C)c(CCN(CC)CC)c(=O)oc2c1Cl,Potency,[1],"inconclusive: 33.5 µM [cytotoxic, single point]"
same,Potency,[2],"inconclusive: 33.5 µM [cytotoxic, single point]"
same,Potency,[3],"inconclusive: 33.5 µM [cytotoxic, single point]"
same,Potency,[13],"inconclusive: 37.6 µM [cytotoxic, partial curve, poor fit]"
same,Potency,[14],"inconclusive: 33.5 µM [cytotoxic, single point]"
same,Potency,[4],"inconclusive: 33.5 µM [inhibitor, single point]"
C[C@]12C=CC(=O)C=C1CC[C@H]1[C@@H]3C[C@@H](O)[C@](O)(C(=O)CO)[C@@]3(C)C[C@H](O)[C@@]12F,Potency,[1],"inconclusive: 33.5 µM [cytotoxic, single point]"
same,Potency,[2],"inconclusive: 3.76 µM [cytotoxic, full curve, poor fit]"
same,Potency,[3],inconclusive: 33.5 µM [cytotoxic]
same,Potency,[15],"inconclusive: 0.0027 µM [cytotoxic, full curve, poor fit]"
same,Potency,[14],"inconclusive: 68.6 µM [rising, single point]"
same,"activity, negative = inhibition",[16],inconclusive: 24.9% and inconclusive: 8.39%
same,Potency,[17],"inconclusive: 1.51 µM [activator, partial curve]"
C=CC(C)(CCC=C(C)C)OC(=O)/C=C/c1ccccc1 (stereo unspecified),Potency,[1],"inconclusive: 68.6 µM [cytotoxic, single point]"
same,Potency,[2],"inconclusive: 68.6 µM [cytotoxic, single point]"
same,Potency,[3],"inconclusive: 68.6 µM [cytotoxic, single point]"
same,Potency,[15],inconclusive: 54.9 µM [cytotoxic]
same,Potency,[4],"inconclusive: 68.6 µM [inhibitor, single point]"
same,activation,[8],inconclusive: -6.5% [phenotype inactive]
same,Potency,[9]; [18],active: 61.1 µM
CCCCN(CCCC)CC(O)c1cc(Cl)cc2c1-c1ccc(Cl)cc1/C2=C/c1ccc(Cl)cc1 (stereo unspecified),Potency,[1],"inconclusive: 33.5 µM [cytotoxic, single point]"
same,Potency,[2],"inconclusive: 33.5 µM [cytotoxic, single point]"
same,Potency,[3],"inconclusive: 33.5 µM [cytotoxic, single point]"
same,Potency,[14],"inconclusive: 33.5 µM [cytotoxic, single point]"
same,activation,[8],inconclusive: -8.42% [phenotype inactive]
same,Potency,[10],"inconclusive: 8.49 µM [cytotoxic, partial curve, poor fit]"
same,Potency,[9]; [18],active: 23.7 µM
